Source: PubChem BioAssay AID1508642 (National Center for Advancing Translational Sciences (NCATS), 2021)
Among all 43,000 compounds or so, about 200 (0.47%) were called active. Not shown: some 12% with an inconclusive outcome. Calls follow the shape of the dose curve; as a rule, active = well fitted cell-killing curve with a large enough effect; inconclusive = small, poorly fitted or top-dose-only effect, or effect the other way; inactive = flat fitted curve, though single readings scatter. This is one part of the list.

assay: Cell viability qHTS assay in S16 Pmp22-F2sN cells; details: S16 Pmp22-F2sN Schwann cells (luciferase reporters placed in the Pmp22 gene) viability, CellTiter-Glo, 24 h; series mostly up to 57.5 µM; activity change, negative = cytotoxicity: at the top concentration; also: nearly all actives have a fitted effect of over 65% in size
How it was run: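 S16 Schwann cells carrying the Pmp22-F2sN reporter, seeded in 1536-well format, were exposed to library compounds for 24 h at 37C. Viability was read as CellTiter-Glo luminescence after 15 min at room temperature.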
% is scaled to controls: 0 for no effect and ±100 for the full control effect.

Row | SMILES | activity change, negative = cytotoxicity
1 | Cc1ccc(-c2nc3ncccc3o2)cc1NC(=O)c1ccc(-c2cccc(Cl)c2C)o1 | inactive: 13.4%
2 | Cc1nc(-c2cccc(F)c2)sc1CCNC(=O)C(=O)Nc1ccc2c(c1)OCO2 | inactive: 5.57%
3 | CCc1ccc(N2CCn3c2nc2c3c(=O)n(CCCc3ccccc3)c(=O)n2C)cc1 | inactive: -0.465%
4 | CCOc1ccc(-c2nonc2NC(=O)COc2ccccc2)cc1 | inactive: -6.34%
5 | CCCc1cnc2c(c1SCC(=O)Nc1cccc(C)c1C)c(=O)n(C)c(=O)n2C | inactive: 10%
6 | COc1ccc(CNC(=O)CN(c2ccc(OC)cc2)S(=O)(=O)c2c(C)[nH]c(=O)[nH]c2=O)cc1 | inactive: -8.33%
7 | Cc1ccc(-n2c(-c3ccco3)nc3c(cnn3-c3ccc(C)cc3)c2=O)cc1 | inactive: 15.9%
8 | Cc1cc(C)cc(OCCn2c(CCNC(=O)C3CCCCC3)nc3ccccc32)c1 | inactive: -0.0873%
9 | O=C(Cc1ccccc1F)N1CCC(c2nc3c(nnn3Cc3cccc(Cl)c3)c(=O)[nH]2)CC1 | inactive: -29.3%
10 | Cn1c(=O)oc2cc(S(=O)(=O)N3CCCC(C(=O)N4CCN(c5cccc(Cl)c5)CC4)C3)ccc21 (stereo not drawn) | inactive: -27.2%
11 | O=C(NCCCCc1ccccc1)c1nn(-c2ccccc2)nc1CO | inactive: 0.212%
12 | COc1ccc(NC(=O)Cn2nnc(C(=O)Nc3ccc(C)c(F)c3)c2N)cc1Cl | inactive: -1.23%
13 | CC1=C(C(=O)OCC2CCCCC2)C(c2cccc(F)c2F)CC(=O)N1 (stereo not drawn) | inactive: 10.4%
14 | CCc1ccc(Cn2nnc(C(=O)Nc3ccc(C)cc3)c2N)cc1 | inactive: -0.408%
15 | CC(C)c1ccc(NC(=O)C2CCCN(S(=O)(=O)c3ccc4[nH]c(=O)ccc4c3)C2)cc1 (stereo not drawn) | inactive: 6.52%
16 | CCOC(=O)c1ccc2c(c1)N(CC(=O)Nc1ccc(CC)cc1)C(=O)c1ccccc1S2 | inactive: 10%
17 | COc1cc(NC(=O)Cn2cnc3sc(C)c(S(=O)(=O)N4CCN(C)CC4)c3c2=O)cc(OC)c1OC | inactive: 2.58%
18 | Cc1ccc(Nc2c(-c3ccc(N4CCOCC4)cc3)nc3ncccn23)cc1C | inactive: -18.1%
19 | CCCN(CCC)CCCNC(=O)c1cn(CC)c2ccc(S(=O)(=O)N3CCc4ccccc4C3)cc2c1=O | inactive: -1.33%
20 | COc1cccc(CNCCSc2nnnn2C)c1OCc1ccc(Cl)cc1 | inactive: -17.9%
21 | CCOc1cccc(C(=O)Nc2ccc(NC(=O)c3ccc(Br)cc3)cc2)c1 | inactive: -11.4%
22 | CCOC(=O)c1ccc(NC(=O)CC2C(=O)N(c3ccccc3)C(=O)N2C2CCCCC2)cc1 (stereo not drawn) | inactive: -2.45%
23 | CCN(c1ccc(C)cc1C)S(=O)(=O)c1nnc(NC(=O)c2ccccc2OC)s1 | inactive: -18.1%
24 | O=C(CSc1oc(-c2ccco2)nc1S(=O)(=O)c1ccccc1)c1ccc(Cl)cc1 | inactive: -6.02%

Row | SMILES | activity change, negative = cytotoxicity
25 | Cn1c(SCc2ccc(F)cc2)nc2ccc(C(=O)NCc3ccccc3)cc21 | inactive: 4.91%
26 | CCCCn1cc(S(=O)(=O)c2ccc(Cl)cc2)c(=O)c2cc(F)c(N3CCCCC3)cc21 | inactive: -3.99%
27 | Cc1cc(C)c2oc(C(=O)Nc3c(C(=O)Nc4ccccc4)oc4ccccc34)cc(=O)c2c1 | inactive: 6.3%
28 | COc1cccc(N2C(=O)CSC23C(=O)N(CC(=O)NCc2ccc(C)cc2)c2ccccc23)c1 (stereo not drawn) | inactive: -2.56%
29 | CSC1=NC2(CCN(C(=O)NC3CCCCC3)CC2)N=C1c1ccc(C(C)(C)C)cc1 | inactive: -12.5%
30 | O=C(C1CCN(c2nc3ccccc3[nH]2)CC1)N1CCN(c2cccc(Cl)c2)CC1 | inactive: -11.7%
31 | CCc1ccc2occ(CC(=O)Nc3sc4c(c3C(=O)OC)CCC4)c2c1 | inactive: 0.988%
32 | COc1ccccc1CNC(=O)c1c(O)nc2cc(C)ccn2c1=O | inactive: -1.11%
33 | Cc1nc2ccc(S(=O)(=O)NC(C(=O)NCc3ccc(Cl)cc3)C(C)C)cc2s1 (stereo not drawn) | inactive: 0.993%
34 | Cc1cccc(C(=O)Nc2ccccc2C(=O)OCc2cc(=O)n3nc(C4CC4)sc3n2)c1 | inactive: 7%
35 | CCOC(=O)c1c(-c2ccc(OC)c(OC)c2)csc1NC(=O)c1ccc(F)cc1 | inactive: 15.2%
36 | CC(C)Oc1ccc(CNC(=O)Cn2ncn3nc(-c4cccs4)cc3c2=O)cc1 | inactive: -4.62%
37 | COC(=O)c1ccccc1-n1c(CCC(=O)O)ccc1-c1ccccc1 | inactive: -3.04%
38 | COc1cccc(CNC(=O)c2ccc3c(c2)nc2n3CCC(C)C2)c1OC (stereo not drawn) | inactive: 16.6%
39 | Cc1ccnc(NS(=O)(=O)c2ccc(NC(=O)c3nc(SC(C)C)ncc3Cl)cc2)n1 | inactive: 7.26%
40 | COc1ccc(C(=O)NCC(c2ccco2)S(=O)(=O)c2cccs2)cc1OC (stereo not drawn) | inactive: -20.5%
41 | CCc1ccccc1NC(=O)C(=O)NCCc1sc(-c2cccc(F)c2)nc1C | inactive: 8.9%
42 | CCOc1ccc(CCNC(=O)c2cc3sc(CC)cc3n2C)cc1OCC | inactive: -4.47%
43 | Cc1ccc(S(=O)(=O)c2cn(Cc3ccc(F)cc3)c3cc(N4CCCC4)c(F)cc3c2=O)cc1 | inactive: 0.224%
44 | Cc1[nH]c2ccccc2c1SCCNC(=O)c1ccccc1F | inactive: -1.11%
45 | Cc1ccc(-n2ncc3c(NCC(C)C)ncnc32)c(C)c1 | inactive: -1.48%
46 | COc1ccccc1-c1cc2nc(C)c(CCC(=O)Nc3cc(C)ccc3C)c(C)n2n1 | inactive: -1.06%
47 | CCc1ccc(NC(=O)Cn2cnc3sc(C)c(S(=O)(=O)N4CCN(c5ccccc5OC)CC4)c3c2=O)cc1 | inactive: -1.37%
48 | CCC(C)NC(=O)CCc1c(C)nc2cc(-c3ccc(OC)cc3OC)nn2c1C (stereo not drawn) | inactive: 2.41%
